We go through twelve molecules from the supplement of paper PMC12889115.

Some of the results follow. Repeats are few or missing, and single values can be far off.
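Further: polymyxin B level opens the outer membrane while sparing the inner membrane, with novobiocin wells as reference growth inhibitor.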

This experiment deals with Salmonella enterica serovar Typhimurium SL1344. Nature of the experiment: bacterial growth OD600 after 18 h in MHB with 0.5 µg/mL polymyxin B; higher = more bacterial growth (less inhibition). The settings on record: 25 µM; polymyxin B 0.5 µg/mL; system: broth. The method, then:
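Secondary screen of the 553 primary hits at 25 µM. (i) S. Typhimurium SL1344 grown in Mueller-Hinton broth with 0.5 µg/mL polymyxin B, OD600 read after 18 h. (ii) SAFIRE assay: RAW 264.7 macrophages infected with S. Typhimurium sifB::gfp (MOI 30); compound added 2 h post-infection; cells fixed at 18 h; GFP-positive pixel fraction per macrophage imaged by confocal microscopy and expressed as % of DMSO control.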
Consider `O=S(=O)(c1ccccc1Cl)N1CCCC(CO)(Cc2cccc(Cl)c2)C1` (configuration not stated), for which the “bacterial growth OD600” value came out at 0.015.
For `CCOC(=O)C1(Cc2ccc(F)cc2)CCCN(C(=O)c2cc3ccccc3cn2)C1` (configuration not stated), the “bacterial growth OD600” value came out at 0.002.
Next, `COCCCN1C(=O)CC(CC(=O)N2CCC(Cc3ccccc3)CC2)(c2ccccc2OC)C1=O` (configuration not stated): -0.012.
Next, `COc1ccccc1CNC(=O)c1coc(COc2ccc(F)cc2)n1`: 0.087; `O=C(NCC1CC2C=CC1C21CC1)c1cc(Cc2ccc(F)cc2)no1` (configuration not stated): -0.005; `COCC1CCN(C(=O)CC(c2ccccc2)c2cccc(Cl)c2)CC1` (configuration not stated): 0.004.
Turning to `O=C(c1cccc2ccccc12)C1CCCN(C(=O)c2ccc3c(c2)OCO3)C1` (configuration not stated), the “bacterial growth OD600” value was found to be 0.002.
Next, `COCCCN1C(=O)CC(CC(=O)N2CC3(C)CC2CC(C)(C)C3)(c2ccccc2Cl)C1=O` (configuration not stated): -0.029.
On to `O=C(CCC(F)(F)F)N1CCc2onc(-c3cccc4ccccc34)c2C1`, for which the “bacterial growth OD600” value came out at 0.009.
The value for `CC(COc1ccccc1)N1CCc2onc(-c3ccc4c(c3)OCO4)c2C1` (configuration not stated) was -0.003; that for `O=C(CCCc1cccs1)N1CCOc2ccc(C(O)C(c3ccccc3)c3ccccc3)cc2C1` (configuration not stated) was 0.008.
Consider `O=C(Nc1ccc(Oc2cccnc2)cc1)C1CCN(Cc2cccc(Cl)c2)CC1`, for which the “bacterial growth OD600” value was 0.118.
